Measured values from the supplement of paper PMC8728848.
Some of the results follow.

Tests used:
Assay in all cases: glycan array binding signal (z-score within array); higher = stronger binding
Conditions in all cases: glycan notation: IUPAC condensed, linker removed
[1] = target: Fuc(a1-2)Gal(b1-4)Glc
Summary of the method: (§1)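 The Consortium for Functional Glycomics database supplied 3228 glycan arrays, of which those lacking an available protein sequence were dropped. The binding signal, a within-array Z-score, was averaged across arrays of the same protein sequence and across linkers. Negative scores can be read as non-binding.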

[2] = target: Fuc(a1-2)Gal(b1-4)Glc6S
Summary of the method: as §1

[3] = target: Fuc(a1-2)Gal(b1-4)GlcNAc
Summary of the method: as §1

[4] = target: Fuc(a1-2)Gal(b1-4)GlcNAc(b1-2)Man
Summary of the method: as §1

[5] = target: Fuc(a1-2)Gal(b1-4)GlcNAc(b1-2)Man(a1-3)[Fuc(a1-2)Gal(b1-4)GlcNAc(b1-2)Man(a1-6)]Man(b1-4)GlcNAc(b1-4)GlcNAc
Summary of the method: as §1

[6] = target: Fuc(a1-2)Gal(b1-4)GlcNAc(b1-2)Man(a1-3)[Fuc(a1-2)Gal(b1-4)GlcNAc(b1-2)Man(a1-6)]Man(b1-4)GlcNAc(b1-4)[Fuc(a1-6)]GlcNAc
Summary of the method: as §1

[7] = target: Fuc(a1-2)Gal(b1-4)GlcNAc(b1-2)[Fuc(a1-2)Gal(b1-4)GlcNAc(b1-4)]Man(a1-3)[Fuc(a1-2)Gal(b1-4)GlcNAc(b1-2)Man(a1-6)]Man(b1-4)GlcNAc(b1-4)GlcNAc
Summary of the method: as §1

[8] = target: Fuc(a1-2)Gal(b1-4)GlcNAc(b1-3)Gal(b1-4)GlcNAc
Summary of the method: as §1

[9] = target: Fuc(a1-2)Gal(b1-4)GlcNAc(b1-3)Gal(b1-4)GlcNAc(b1-2)Man(a1-3)[Fuc(a1-2)Gal(b1-4)GlcNAc(b1-3)Gal(b1-4)GlcNAc(b1-2)Man(a1-6)]Man(b1-4)GlcNAc(b1-4)GlcNAc
Summary of the method: as §1

[10] = target: Fuc(a1-2)Gal(b1-4)GlcNAc(b1-3)Gal(b1-4)GlcNAc(b1-3)Gal(b1-4)GlcNAc
Summary of the method: as §1

[11] = target: Fuc(a1-2)Gal(b1-4)GlcNAc(b1-3)GalNAc
Summary of the method: as §1

[12] = target: Fuc(a1-2)Gal(b1-4)GlcNAc(b1-3)[Fuc(a1-2)Gal(b1-4)GlcNAc(b1-6)]GalNAc
Summary of the method: as §1

[13] = target: Fuc(a1-2)Gal(b1-4)GlcNAc(b1-3)[Fuc(a1-3)[Gal(b1-4)]GlcNAc(b1-6)]Gal(b1-4)Glc
Summary of the method: as §1

[14] = target: Fuc(a1-2)Gal(b1-4)GlcNAc(b1-6)GalNAc
Summary of the method: as §1

[15] = target: Fuc(a1-2)Gal(b1-4)GlcNAc6S
Summary of the method: as §1

[16] = target: Fuc(a1-2)Gal(b1-4)[Fuc(a1-3)]GlcNAc
Summary of the method: as §1

[17] = target: Fuc(a1-2)Gal(b1-4)[Fuc(a1-3)]GlcNAc(b1-2)Man(a1-3)[Fuc(a1-2)Gal(b1-4)[Fuc(a1-3)]GlcNAc(b1-2)Man(a1-6)]Man(b1-4)GlcNAc(b1-4)[Fuc(a1-6)]GlcNAc
Summary of the method: as §1

[18] = target: Fuc(a1-2)Gal(b1-4)[Fuc(a1-3)]GlcNAc(b1-2)[Fuc(a1-2)Gal(b1-4)[Fuc(a1-3)]GlcNAc(b1-4)]Man(a1-3)[Fuc(a1-2)Gal(b1-4)[Fuc(a1-3)]GlcNAc(b1-2)Man(a1-6)]Man(b1-4)GlcNAc(b1-4)GlcNAc
Summary of the method: as §1

[19] = target: Fuc(a1-2)Gal(b1-4)[Fuc(a1-3)]GlcNAc(b1-3)Gal(b1-4)[Fuc(a1-3)]GlcNAc
Summary of the method: as §1

[20] = target: Fuc(a1-2)Gal(b1-4)[Fuc(a1-3)]GlcNAc(b1-3)Gal(b1-4)[Fuc(a1-3)]GlcNAc(b1-3)Gal(b1-4)[Fuc(a1-3)]GlcNAc
Summary of the method: as §1

[21] = target: Fuc(a1-2)Gal(b1-4)[Fuc(a1-3)]GlcNAc(b1-3)GalNAc
Summary of the method: as §1

[22] = target: Fuc(a1-2)Gal(b1-4)[Fuc(a1-3)]GlcNAc(b1-3)[Neu5Ac(a2-6)Gal(b1-4)GlcNAc(b1-6)]Gal(b1-4)Glc
Summary of the method: as §1

[23] = target: Fuc(a1-2)Gal3S(b1-4)GlcNAc
Summary of the method: as §1

B1: Banana lectin (Musa acuminata) (protein)
chain: MNGAIKVGAWGGNGGSAFDMGPAYRIISVKIFSGDVVDAVDVTFTYYGKTETRHFGGSGGTPHEIVLQEGEYLVGMKGEFGNYHGVVVVGKLGFSTNKKSYGPFGNTGGTPFSLPIAAGKISGFFGRGGDFIDAIGVYLEP
glycan array binding signal (z-score) [1]: -0.196 | glycan array binding signal (z-score) [2]: -0.192 | glycan array binding signal (z-score) [3]: -0.194 | glycan array binding signal (z-score) [4]: -0.193 | glycan array binding signal (z-score) [5]: 0.121 | glycan array binding signal (z-score) [6]: 0.154 | glycan array binding signal (z-score) [7]: 0.032 | glycan array binding signal (z-score) [8]: -0.195 | glycan array binding signal (z-score) [9]: -0.11 | glycan array binding signal (z-score) [10]: -0.187 | glycan array binding signal (z-score) [11]: -0.194 | glycan array binding signal (z-score) [12]: -0.191 | glycan array binding signal (z-score) [13]: -0.19 | glycan array binding signal (z-score) [14]: -0.177 | glycan array binding signal (z-score) [15]: -0.196 | glycan array binding signal (z-score) [16]: -0.194 | glycan array binding signal (z-score) [17]: 0.115 | glycan array binding signal (z-score) [18]: -0.151 | glycan array binding signal (z-score) [19]: -0.189 | glycan array binding signal (z-score) [20]: -0.165 | glycan array binding signal (z-score) [21]: -0.184 | glycan array binding signal (z-score) [22]: -0.187 | glycan array binding signal (z-score) [23]: -0.194
